# Reference: article PMC3691460 (The Journal of Cell Biology, 2013)
# T1: β3 subunit PSI, hybrid, βI, and I-EGF-1 domains (UniProt P05106)
# T1 sequence: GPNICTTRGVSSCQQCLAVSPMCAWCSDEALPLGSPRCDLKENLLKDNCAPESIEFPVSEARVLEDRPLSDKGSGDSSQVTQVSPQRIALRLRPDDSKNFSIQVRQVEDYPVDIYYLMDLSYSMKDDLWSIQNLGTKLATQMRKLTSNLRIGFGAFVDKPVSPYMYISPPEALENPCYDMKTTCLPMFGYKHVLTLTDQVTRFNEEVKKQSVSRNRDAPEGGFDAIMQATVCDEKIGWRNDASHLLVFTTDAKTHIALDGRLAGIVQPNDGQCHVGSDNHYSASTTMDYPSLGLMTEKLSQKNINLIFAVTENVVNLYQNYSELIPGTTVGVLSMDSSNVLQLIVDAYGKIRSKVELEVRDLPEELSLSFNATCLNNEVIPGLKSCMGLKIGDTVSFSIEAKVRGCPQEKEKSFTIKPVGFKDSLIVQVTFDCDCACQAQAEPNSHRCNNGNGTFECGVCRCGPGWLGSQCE
# Biological target: T1, β3 subunit PSI, hybrid, βI, and I-EGF-1 …
# Assay: crystal structure
binder,measurement,value
αIIb subunit β-propeller domain (domain or fragment) not shown,binding result,binds
